Values joined by “and” are separate entries in the source; they are usually repeats but may differ in a detail not shown here. Equal values may be shown once. Among all 400,000 compounds or so, about 2,200 (0.55%) were called active. Inconclusive means that the source gave no clear call. Such entries were picked first, then a sample of the others. Calls come from the whole dose curve; as a rule, active = well fitted inhibition curve with a large enough effect; inconclusive = small, poorly fitted or top-dose-only effect, or another doubt; inactive = no such curve, though single readings can be large or run the other way. Potencies of inconclusive entries are doubtful fits and often do not repeat.
Target: DNA polymerase kappa (Homo sapiens) (UniProt Q9UBT6)
UniProt Q9UBT6, sequence (Q9UBT6 whole entry, looked up): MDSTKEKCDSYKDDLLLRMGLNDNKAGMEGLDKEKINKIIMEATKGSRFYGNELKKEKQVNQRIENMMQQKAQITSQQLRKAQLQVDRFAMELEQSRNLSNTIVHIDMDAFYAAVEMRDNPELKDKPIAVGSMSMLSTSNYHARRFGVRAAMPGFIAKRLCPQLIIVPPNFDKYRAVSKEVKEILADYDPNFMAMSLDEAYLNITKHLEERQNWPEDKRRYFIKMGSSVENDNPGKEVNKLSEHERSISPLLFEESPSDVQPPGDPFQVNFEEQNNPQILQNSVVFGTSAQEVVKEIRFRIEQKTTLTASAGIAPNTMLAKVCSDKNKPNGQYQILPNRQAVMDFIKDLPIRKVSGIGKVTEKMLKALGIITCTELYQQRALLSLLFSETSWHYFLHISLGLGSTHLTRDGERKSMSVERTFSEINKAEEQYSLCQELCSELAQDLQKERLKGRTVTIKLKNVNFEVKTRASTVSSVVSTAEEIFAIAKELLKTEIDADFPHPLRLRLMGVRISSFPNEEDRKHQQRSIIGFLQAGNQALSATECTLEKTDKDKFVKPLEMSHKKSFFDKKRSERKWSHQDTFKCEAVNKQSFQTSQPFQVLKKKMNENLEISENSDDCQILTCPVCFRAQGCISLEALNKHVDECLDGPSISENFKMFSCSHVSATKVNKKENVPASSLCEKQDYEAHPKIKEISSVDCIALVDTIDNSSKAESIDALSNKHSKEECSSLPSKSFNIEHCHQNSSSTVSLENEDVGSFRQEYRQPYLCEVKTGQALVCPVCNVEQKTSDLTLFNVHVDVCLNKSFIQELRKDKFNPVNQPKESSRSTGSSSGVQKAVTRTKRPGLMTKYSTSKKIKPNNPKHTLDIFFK
Experiment: qHTS for Inhibitors of Polymerase Kappa
Details: purified Pol kappa, fluorescent DNA synthesis assay, 10 min; series mostly up to 107 µM
Description: The processing and repair of DNA interstrand crosslinks (ICL) in eukaryotic cells are extremely complex, potentially involving multiple DNA repair and damage tolerance pathways, including homologous recombination, nucleotide excision repair, translesion synthesis (TLS), and cell cycle checkpoints.
To that end, in a collaboration between the Oregon Health & Science University and the NIH Chemical Genomics Center a 1536-well high-throughput screen was developed. This fluorescent screen was assayed against the NIH Molecular Libraries Small Molecule Repository (MLSMR) to discover inhibitors of Pol Kappa.
NIH Chemical Genomics Center [NCGC]
NIH Molecular Libraries Probe Centers Network [MLPCN]
Assay Submitter (PI): Stephen Lloyd, Oregon Health & Science University
Three microliters of reagents (buffer in column 3 and 4 as negative control and 10 nM Pol kappa in columns 1, 2, and 5-48) were dispensed into a 1536-well black solid-bottom plate. Compounds (23 nL) were transferred via Kalypsys pin tool equipped with 1536-pin array. The plates were then incubated for 15 min at room temperature, and 1 uL substrate (50 nM final concentration) were then added to start the reaction and kinetically read twice at 0 min and 10 min on the Viewlux reader
Potency is the fitted concentration of half-maximal effect; tags give direction and shape of the fitted curve.

**Q.** With `C=NC(C(=O)NC1C(=O)N2C1SC(C)(C)C2C(=O)O)c1ccccc1` (stereo not given) as the compound, how does the Potency read?
**A.** Its Potency is inconclusive: 31.6 µM [inhibitor, single point].

**Q.** Which Potency does the source give for `O=C(Oc1ccc(Cl)c2cccnc12)C12CC3CC(CC(C3)C1)C2` here?
**A.** Its Potency is “inactive”.

**Q.** Which Potency does the source give for `COc1ccc2c(CC(=O)NCc3ccc4c(c3)OCO4)coc2c1` here?
**A.** Its Potency is inconclusive: 89.1 µM [inhibitor, single point].

**Q.** Which Potency does the source give for `CCOc1ccc(NC(=S)NC(=O)Cc2ccccc2)cc1` here?
**A.** The Potency was inconclusive: 89.1 µM [inhibitor, single point].

**Q.** For `O=C(c1ccco1)N1CCCC(c2nc3c(nnn3Cc3ccccc3)c(=O)[nH]2)C1` (stereo not given), which Potency is on record?
**A.** The Potency was inconclusive: 89.1 µM [inhibitor, partial curve, poor fit].

**Q.** For `S=c1[nH]nc(COc2ccccc2)n1/N=C/C=C/c1ccco1`, which Potency is on record?
**A.** The Potency was inconclusive: 50.1 µM [inhibitor, partial curve].

**Q.** With `COc1ccc(CNc2ncnc3ccc(-c4ccccc4C#N)cc23)c(OC)c1` as the compound, how does the Potency read?
**A.** Its Potency is active: 39.8 µM.

**Q.** How did the Potency turn out when `CN=c1scc(-c2ccco2)n1/N=C/c1ccc(O)c(O)c1` was run?
**A.** Its Potency is inconclusive: 56.2 µM [inhibitor, partial curve, poor fit].

**Q.** With `OCCNc1nc(-c2ccccc2)c2ccccc2n1` as the compound, how does the Potency read?
**A.** The Potency was inconclusive: 89.1 µM [inhibitor, single point].

**Q.** `C=CCn1c(C)cc(C(=O)COC(=O)c2ccc3c(c2)NC(=O)CS3)c1C` was tested. Which Potency did it give?
**A.** Its Potency is inconclusive: 100 µM [inhibitor, partial curve, poor fit].

**Q.** With `N#Cc1cccc(C#N)c1Oc1ccc(S(=O)(=O)Nc2ccc(Cl)cc2)cc1` as the compound, how does the Potency read?
**A.** Its Potency is “inactive”.

**Q.** With `COc1ccc(CNC(=O)CN2C(=O)CSc3ccc(S(=O)(=O)N(C)C)cc32)cc1` as the compound, how does the Potency read?
**A.** The Potency was inconclusive: 39.8 µM [inhibitor, partial curve, poor fit].

**Q.** For `O=C(O)CSc1cc(C(=O)c2ccccc2O)cn2c(=O)c3c(-c4ccccc4)csc3nc12`, which Potency is on record?
**A.** Its Potency is inconclusive: 89.1 µM [inhibitor, single point].

**Q.** For `Cc1cc(/C=C2\C(=N)N3N=C(c4ccco4)SC3=NC2=O)c(C)n1Cc1ccccc1`, which Potency is on record?
**A.** Its Potency is active: 50.1 µM.

**Q.** How did the Potency turn out when `COc1ccccc1-n1c(-c2cc(-c3ccco3)[nH]n2)n[nH]c1=S` was run?
**A.** The Potency was active: 17.8 µM.

**Q.** Which Potency does the source give for `O=C1c2cc([N+](=O)[O-])cc3cc([N+](=O)[O-])cc(c23)C(=O)N1c1ccccn1` here?
**A.** Its Potency is inconclusive: 89.1 µM [inhibitor, single point].

**Q.** How did the Potency turn out when `CC(C)NC(=O)N1CCC2(CC1)CCN(C(=O)c1cc(C(F)(F)F)cc(C(F)(F)F)c1)CC2` was run?
**A.** Its Potency is “inactive”.

**Q.** Which Potency does the source give for `C(=C\n1nnc2ccccc21)/c1ccc[nH]1` here?
**A.** The Potency was active: 25.1 µM.

**Q.** Which Potency does the source give for `CCn1c(SCC(=O)c2ccc(O)c(O)c2)nnc1-c1ccccc1` here?
**A.** The Potency was inconclusive: 79.4 µM [inhibitor, partial curve, poor fit].

**Q.** Which Potency does the source give for `COc1ccccc1C1CC(=O)Oc2cc(C)c(Cl)c(C)c21` (stereo not given) here?
**A.** Its Potency is inconclusive: 63.1 µM [inhibitor, partial curve, poor fit].

**Q.** How did the Potency turn out when `O=C(Nc1cccc([N+](=O)[O-])c1)c1cnccn1` was run?
**A.** Its Potency is inconclusive: 89.1 µM [inhibitor, single point].

**Q.** With `CCN(CC)CCOc1ccc2c(c1)C(=NO)c1cc(OCCN(CC)CC)ccc1-2` as the compound, how does the Potency read?
**A.** Its Potency is inconclusive: 50.1 µM [inhibitor, partial curve].

**Q.** With `O=C1CC(=O)CC(c2ccco2)C1` as the compound, how does the Potency read?
**A.** The Potency was inconclusive: 89.1 µM [inhibitor, single point].

**Q.** With `O=C(Nc1nnc(S(=O)(=O)N2CCCc3ccccc32)s1)c1cccc(Cl)c1` as the compound, how does the Potency read?
**A.** Its Potency is “inactive”.

**Q.** For `CCN(CC)S(=O)(=O)c1ccc(O)c(NC(=O)c2ccc(N3CCOCC3)c([N+](=O)[O-])c2)c1`, which Potency is on record?
**A.** Its Potency is inconclusive: 89.1 µM [inhibitor, single point].

**Q.** How did the Potency turn out when `COc1ccc2ccc(=O)oc2c1` was run?
**A.** Its Potency is inconclusive: 3.98 µM [inhibitor, partial curve, poor fit].

**Q.** How did the Potency turn out when `Cc1cc(-c2nc3c4c5c(sc4[nH]c(=O)n3n2)CCC5)c(C)o1` was run?
**A.** Its Potency is inconclusive: 50.1 µM [inhibitor, partial curve, poor fit].

**Q.** Which Potency does the source give for `CN(C)CCNC(=O)c1cccc2nc3c(ccc4ccccc43)nc12` here?
**A.** The Potency was inconclusive: 56.2 µM [inhibitor, partial curve, poor fit].

**Q.** For `O=C1N=C(N2CCCC2C(=O)O)S/C1=C\c1ccco1` (stereo not given), which Potency is on record?
**A.** Its Potency is inconclusive: 89.1 µM [inhibitor, single point].

**Q.** With `O=c1[nH][nH]c2cc(=O)n(-c3ccc(Cl)cc3)nc12` as the compound, how does the Potency read?
**A.** The Potency was active: 79.4 µM.

**Q.** With `Cc1ccc(C(=O)Oc2ccc(/C=C3\C(=N)N4N=C(N5CCOCC5)SC4=NC3=O)cc2)cc1` as the compound, how does the Potency read?
**A.** The Potency was inconclusive: 63.1 µM [inhibitor, partial curve, poor fit].

**Q.** Which Potency does the source give for `Cc1cc(-c2csc(NC(=O)C3=COCCO3)n2)c(C)n1C` here?
**A.** The Potency was inconclusive: 56.2 µM [inhibitor, partial curve, poor fit].

**Q.** How did the Potency turn out when `Cc1cccc(NC(=O)Cn2c(=O)n(CCCS(=O)(=O)C3CCCCC3)c(=O)c3ccccc32)c1` was run?
**A.** The Potency was inconclusive: 89.1 µM [inhibitor, single point].

**Q.** For `O=C(Nc1ccc(C(=O)Nc2ccc(C(=O)Nc3ccc(S(=O)(=O)O)c4cc(S(=O)(=O)O)cc(S(=O)(=O)O)c34)cc2)cc1)Nc1ccc(C(=O)Nc2ccc(C(=O)Nc3ccc(S(=O)(=O)O)c4cc(S(=O)(=O)O)cc(S(=O)(=O)O)c34)cc2)cc1`, which Potency is on record?
**A.** Its Potency is active: 631 nM and active: 141 nM.

**Q.** `O=C(CCc1nc2sc3c(c2c(=O)[nH]1)CCCC3)Nc1ccccc1Cl` was tested. Which Potency did it give?
**A.** The Potency was inconclusive: 100 µM [inhibitor, single point].

**Q.** Which Potency does the source give for `CCCN(CCC)CCNC(=O)C1c2ccccc2C(=O)N2CCc3ccccc3C12` (stereo not given) here?
**A.** Its Potency is “inactive”.

**Q.** For `O=C(c1ccccc1)c1ccc(O)c(O)c1O`, which Potency is on record?
**A.** Its Potency is active: 22.4 µM.

**Q.** For `COc1cc(-c2[nH]ncc2CN2CCCC2c2nonc2C)cc(OC)c1OC` (stereo not given), which Potency is on record?
**A.** Its Potency is “inactive”.

**Q.** For `COc1cc(C(=O)NS(=O)(=O)c2ccccc2C)ccc1Cc1cn(C)c2ccc(NC(=O)OC3CCCC3)cc12`, which Potency is on record?
**A.** The Potency was inconclusive: 37.7 µM [inhibitor, single point].

**Q.** With `O=C(Nc1cccc(Cl)c1)c1cccc(Oc2ccc([N+](=O)[O-])cc2Cl)c1` as the compound, how does the Potency read?
**A.** The Potency was inconclusive: 89.1 µM [inhibitor, single point].
